# From PubChem BioAssay AID1745853 (National Center for Advancing Translational Sciences (NCATS), 2022)
# The list shows a part of the results. Further columns of the screen follow, without active or inactive calls.
# Legend:
# Assay in all cases: Primary Screen for Target Class Profiling of Small Molecule Inhibitors of Methyltransferases
# [1] = target: Glycine N-methyltransferase (Homo sapiens) (UniProt Q14749); details: purified enzyme, MTase-Glo SAH luminescence; measured here: GNMT inhibition; at 40 µM; stronger effect = lower value
# Outline: (§1)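 Each enzyme was reacted with SAM and its substrate, with compounds tested once at 40 uM; SAH formed was read by MTase-Glo luminescence.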
# [2] = target: Guanidinoacetate N-methyltransferase (Homo sapiens) (UniProt Q14353); details: purified enzyme, MTase-Glo SAH luminescence; measured here: GAMT inhibition; at 40 µM; stronger effect = lower value
# Outline: as §1
# [3] = target: Histamine N-methyltransferase (Homo sapiens) (UniProt P50135); details: purified enzyme, MTase-Glo SAH luminescence; measured here: HNMT inhibition; at 40 µM; stronger effect = lower value
# Outline: as §1
# [4] = target: Nicotinamide N-methyltransferase (Homo sapiens) (UniProt P40261); details: purified enzyme, MTase-Glo SAH luminescence; measured here: NNMT inhibition; at 40 µM; stronger effect = lower value
# Outline: as §1
# [5] = target: Phenylethanolamine N-methyltransferase (Homo sapiens) (UniProt P11086); details: purified enzyme, MTase-Glo SAH luminescence; measured here: PNMT inhibition; at 40 µM; stronger effect = lower value
# Outline: as §1
# % is scaled to controls: 0 for no effect and ±100 for the full control effect.
SMILES,"activity change, negative = inhibition [1]","activity change, negative = inhibition [2]","activity change, negative = inhibition [3]","activity change, negative = inhibition [4]","activity change, negative = inhibition [5]"
Cc1cccc(C)c1-n1c(=O)c2cnc(Nc3ccc(N4CCN(C)CC4)cc3)nc2n2c3ccccc3nc12,-14.6%,11.8%,-31.8%,-22.8%,2.97%
CCCC1(CO)CCCN(Cc2nnc(-c3cccc(F)c3)o2)C1 (configuration not stated),-6.47%,-8.86%,-5.54%,-15.4%,-12.7%
CCN1C(=O)c2cc3ccccc3n2CC1(C)C(=O)NCC(=O)NCc1cccs1 (configuration not stated),-3.62%,3.27%,-3.41%,-7.17%,-4.16%
O=C1CCC2(CCCN(C(=O)c3ccc(=O)[nH]c3)C2)CN1CCc1cnc[nH]1 (configuration not stated),-5.45%,-6.07%,-2.98%,-8.16%,-6.92%
CN[C@H]1CC[C@@H](c2ccc(Cl)c(Cl)c2)c2ccccc21,-7.64%,3.98%,-33.3%,-23.2%,5.25%
CC1CCC(NC(=O)C2(C)Cn3c(cc4sccc43)C(=O)N2c2ccc(C(C)C)cc2)CC1 (configuration not stated),2.09%,0%,3.79%,3.7%,-7.97%
Cc1ccc(CN2C(=O)c3cc4occc4n3CC2(C)C(=O)NC2CCCCC2C)cc1 (configuration not stated),0.599%,4.03%,4.66%,-1.59%,2.53%
CC(C)(O)c1ccc2c(c1)C(=O)CC1[C@](C)(CO)CCC[C@]21C (some centres not stated),-16.2%,-14%,4.55%,-26.1%,-1.08%
CNC(=O)N1CCC(C2CCN(C(=O)Cn3cccn3)C2)CC1 (configuration not stated),-1.61%,-2.62%,-0.359%,3.56%,3.15%
CCOCCCNC(=O)N1CCC2(CC1)CC(N(Cc1ccc(F)cc1)C1CC1)CCO2 (configuration not stated),-3.64%,-0.32%,-0.017%,-3.41%,-3.38%
Cc1noc(C)c1S(=O)(=O)N1CCC[C@H]1C(=O)N1CCCCCCNC(=O)CC1,-1.05%,0.556%,2.7%,0.232%,1.14%
Cc1ccc(-c2n[nH]n3c2nc(=O)c2ccc(C(=O)NCCC(C)C)cc23)cc1,-12.6%,-4.09%,-2.34%,-7.57%,-4.78%
CCOC(=O)c1cc2n(n1)CC(C)(C(=O)NCc1ccc(F)cc1)N(Cc1ccc(OC)cc1)C2=O (configuration not stated),1.36%,0%,3.25%,0.231%,-1.97%
Cc1ccc(CN2C(=O)c3cc4ccccc4n3CC2(C)C(=O)NCc2ccccc2)cc1 (configuration not stated),-1.42%,5.59%,1.74%,-0.962%,-3.91%
CC1CC(=O)NN=C1c1ccc(NCC(C)(C)NCC(O)COc2cc(Cl)ccc2C#N)cc1 (configuration not stated),-7.69%,5.69%,-13.3%,-17.3%,-8.73%
CCn1ccc(C(=O)N2CC(c3nc(CCOCC4CC4)no3)C2)n1,2.92%,-1.45%,0.652%,3.54%,-4.96%

SMILES,"activity change, negative = inhibition [1]","activity change, negative = inhibition [2]","activity change, negative = inhibition [3]","activity change, negative = inhibition [4]","activity change, negative = inhibition [5]"
O=C(N1CCCCC1)N1CCN(c2cc(Cl)ncn2)C(=O)C1,-4.84%,-2.93%,-2.27%,-8.62%,-3.64%
O=C(NCc1ccc(F)c(F)c1)C1CN(C2CCCC2)C(=O)N1 (configuration not stated),-0.365%,-0.44%,2.44%,0.127%,2.54%
CC1(C)CCC(C)(C)c2cc([C@@H](O)C(=O)Nc3ccc(C(=O)O)cc3F)ccc21,-6.52%,-3.79%,6.75%,-29.7%,-1.65%
COC(O)(CC(C)C)C1Oc2cc(C)[nH]c(=O)c2O1 (configuration not stated),3.92%,7.04%,4.37%,-7.84%,6.87%
CCN1CCN(C(=O)c2cc3n(n2)CC(C)(C(=O)NCc2ccc(F)cc2)N(C)C3=O)CC1 (configuration not stated),1.66%,4.34%,-2.95%,4.72%,1.88%
CN(C(=O)CCS(=O)(=O)c1ccccc1)C1CCc2nn(C)c(=O)n2CC1 (configuration not stated),-2.3%,0.186%,1.58%,-3.12%,-1.17%
CCOC(=O)N1CCC2(CC1)N=C(CCC(C)C)NC2=O,7.5%,4.35%,3.18%,-2.06%,12.9%
CC(C)Cn1c(=O)c2ccccc2n2c(CCC(=O)NC3CCC(C)CC3)nnc12 (configuration not stated),-4.23%,1.4%,6.24%,2.93%,-3.02%
COc1ccccc1CC(=O)N1CCC(n2nccc2NC(=O)c2ccccc2C)CC1,0.389%,-0.34%,2.71%,-1.22%,2.32%
CCOC(=O)c1cc2n(n1)CC(C)(C(=O)NCCCOC)N(c1ccc(CC)cc1)C2=O (configuration not stated),7.13%,0%,7.98%,8.25%,6.9%
CC1CCCC(NC(=O)C2(C)Cn3c(cc4occc43)C(=O)N2Cc2ccc(F)cc2)C1C (configuration not stated),-4.86%,3.17%,4.37%,-5.75%,-1.1%
CCn1c(N)c(C(=O)NC)c(=O)c2ccc(C#CC(C)(O)COC)nc21 (configuration not stated),-17.1%,,-5.58%,,
CCC(C)/C=C(C)/C=C/C1=CC2=C(Cl)C(=O)C(C)(OC(C)=O)C(=O)C2(O)C(OC)O1 (configuration not stated),-0.95%,5.01%,7.7%,-8.57%,4.59%
CC1(C(=O)NC2CCCCCC2)Cn2c(cc3ccccc32)C(=O)N1Cc1ccccc1 (configuration not stated),3.59%,0%,2.49%,-1.54%,-1.38%
CCOC(=O)c1cc2n(n1)CC(C)(C(=O)NCCOC)N(c1cc(C)cc(C)c1)C2=O (configuration not stated),5.46%,0%,8.48%,5.62%,3.08%
